Assay results: article doi:10.1101/2025.01.08.631920 (bioRxiv, 2025)

Target: the molecule itself
Experiment: cryo-EM structure

B1: Mycobacterium smegmatis type II NADH dehydrogenase (NDH-2) with a C-terminal 3×FLAG tag (enzyme, M. smegmatis, UniProt A0QYD6 1-457, looked up)
chain: MSHPGATASDRHKVVIIGSGFGGLTAAKTLKRADVDVKLIARTTHHLFQPLLYQVATGIISEGEIAPATRVILRKQKNAQVLLGDVTHIDLENKTVDSVLLGHTYSTPYDSLIIAAGAGQSYFGNDHFAEFAPGMKSIDDALELRGRILGAFEQAERSSDPVRRAKLLTFTVVGAGPTGVEMAGQIAELADQTLRGSFRHIDPTEARVILLDAAPAVLPPMGEKLGKKARARLEKMGVEVQLGAMVTDVDRNGITVKDSDGTIRRIESACKVWSAGVSASPLGKDLAEQSGVELDRAGRVKVQPDLTLPGHPNVFVVGDMAAVEGVPGVAQGAIQGGRYAAKIIKREVSGTSPKIRTPFEYFDKGSMATVSRFSAVAKVGPVEFAGFFAWLCWLVLHLVYLVGFKTKIVTLLSWGVTFLSTKRGQLTITEQQAYARTRIEELEEIAAAVQDTEKAAS
- stoichiometry N: 2
